Assay results reported in the supplement of paper PMC11417369.
± gives the standard deviation of the averaged measurements. The list shows a part of the results.

system: PfAP2-I AP2 domain 3 (GST-tagged); test: gcPBM binding intensity (ln(normalized median fluorescence intensity)); higher = stronger DNA binding
How it was run: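 For binding intensity, the highest Masliner-normalised natural-log median intensity across replicate spots of either probe orientation was taken. Protein bound to the array was stained with Alexa488 anti-GST antibody and scanned at 488 nm. The protein, GST-tagged P. falciparum DNA-binding domains from E. coli at about 25 μg on average, had been applied for 1 h to an Agilent 4 × 180k array of primer-extended double-stranded 36-bp intergenic genomic probes and negative controls.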

| Sequence | gcPBM binding intensity (ln) |
| --- | --- |
| ATATTTTTTAATTTTACACACCATATAAAATAATTC [CACACA_site7339] | 8.02 ± 0.58 |
| AAATATATTATATGTACACACAAAATTAAGGGATAT [CACACA_site1375] | 8.24 ± 0.54 |
| ATCAATACTTTTTTGGGTACATAAATATATATATAT [XGTACX_site8436] | 9.295 ± 0.078 |
| ATATTATGAATTGTCACACATATATTTAAAAATGTA [CACACA_site4852] | 7.69 ± 0.47 |
| TGCATATTACTTTTTCACATAAAAATGATCCGATTA [GTGCAC_negctrl_site526] | 7.62 ± 0.41 |
| TAAATATGTGTATGTAGTACATAGTGTTTTTTTTTT [XGTACX_site3748] | 7.63 ± 0.26 |
| AAAAAATGACTTAATATGAGCATATATTATGTTGTT [CACACA_negctrl_site1609] | 7.35 ± 0.52 |
| GTTATACACATCAACACACACATACAACGTGGTGTA [CACACA_site6677] | 7.8 ± 0.59 |
| AAAATATAAAAATGAAGTACAAAAAAAAAAAAAAAA [XGTACX_site8132] | 8.04 ± 0.79 |
| CATTAAAATTGAGAGATGCACTTTTTAAGACCTTGT | 8.53 ± 0.39 |
| TTTTTTTTTTTTTTTTTTTTACCCCTTTTTCAAAAA [CACACA_negctrl_site1524] | 8.21 ± 0.69 |
| AAAACATTGTTTATGTGTACATAATTATATTTACAA [XGTACX_site6926] | 7.76 ± 0.33 |
| TCTAACATATAATATTCACACACATATATATATTAT [CACACA_site8236] | 7.75 ± 0.47 |
| TGGTTTCAATAATTAATAAAATATATTATTGTGAAA [CACACA_negctrl_site442] | 7.28 ± 0.45 |
| ATAATATATTTATAATGTACAAACCATTTGTATTAA [XGTACX_site4370] | 7.58 ± 0.46 |
| ATTATTATTATATTTTGTACATATGTAACAATATAT [XGTACX_site5780] | 7.83 ± 0.47 |
| GCTTCTTAATATCATACACACATAGATATATTTATA [CACACA_site5676] | 8.11 ± 0.58 |
| GGAGACTTTGTATTGGGTACGTATTTCAATGCATGT [XGTACX_site1596] | 8.25 ± 0.59 |
| TTTTTTAACAAAAATAAAACATAACTGAATTAAAAG [GTGCAC_negctrl_site244] | 7.8 ± 0.56 |
| CTTCCTATATTTTACTGTACTTTTTTTTTTTTTTTT [XGTACX_site4016] | 8.81 ± 0.27 |
| CATACATACATACATACACACACATATATATATATA [CACACA_site8593] | 9.7 ± 0.4 |
| AAACCTTTACATCGTTTGCACTATATTGATATGTGT [GTGCAC_site9686] | 9.38 ± 0.35 |
| ACGAATTAAATTTGCTGTACCAAAAAGAAAACAATA [XGTACX_site5511] | 7.88 ± 0.54 |
| TAAAATGTACAGGACGCACACACATATATATATATA [CACACA_site3673] | 9.42 ± 0.44 |
